The list shows a part of the results.
B1: PhoQ; a variant is named by its letters at X, in order, P23837 (parent)
chain: MKKLLRLFFPLSLRVRFLLATAAVVLVLSLAYGMVALIGYSVSFDKTTFRLLRGESNLFYTLAKWENNKLHVELPENIDKQSPTMTLIYDENGQLLWAQRDVPWLMKMIQPDWLKSNGFHEIEADVNDTSLLLSGDHSIQQQLQEVREDDDDAEMTHSVAVNVYPATSRMPKLTIVVVDTIPVELKSSYMVWSWFIYVLSANLLLVIPLLWVAAWWSLRPIEALAKEVRELEEHNRELLNPATTRELTSLVRNLNRLLKSERERYDKYRTTLTDLTHSLKTPLXXLQXXLRSLRSEKMSVSDAEPVMLEQISRISQQIGYYLHRASMRGGTLLSRELHPVAPLLDNLTSALNKVYQRKGVNISLDISPEISFVGEQNDFVEVMGNVLDNACKYCLEFVEISARQTDEHLYIVVEDDGPGIPLSKREVIFDRGQRVDTLRPGQGVGLAVAREITEQYEGKIVAGESMLGGARMEVIFGRQHSAPKDE

Variants of: B1
Assay: enrichment ratio after two sorts for PhoP signalling (ratio (wild type AVST 3.29)); higher = more functional
Details: with PhoP (E. coli)

Variant	enrichment ratio
RLSD	≤ 0.25
NFPA	≤ 0.25
QEFG	30.8
LNRK	≤ 0.25
VKGI	≤ 0.25
SPLL	≤ 0.25
HGGS	≤ 0.25
VNCM	4.53
TTFT	2.36
EDDD	≤ 0.25
IWLS	≤ 0.25
LYQP	≤ 0.25
IKSF	≤ 0.25
APPE	≤ 0.25
GNMN	≤ 0.25
ARTE	≤ 0.25
EPCK	≤ 0.25
HPPN	≤ 0.25
EEFF	≤ 0.25
VWFS	≤ 0.25
WSSK	≤ 0.25
NCYG	≤ 0.25
MLQR	≤ 0.25
ADNA	≤ 0.25

Variant	enrichment ratio
WFQR	≤ 0.25
FNHK	≤ 0.25
PPVC	≤ 0.25
MPYR	≤ 0.25
PGPK	≤ 0.25
PHTN	≤ 0.25
AMGK	≤ 0.25
RNHD	≤ 0.25
HRRK	≤ 0.25
RPLK	≤ 0.25
GHSN	≤ 0.25
MLYF	≤ 0.25
HFMA	≤ 0.25
YQWD	≤ 0.25
AWSE	≤ 0.25
VMVT	≤ 0.25
TYEH	≤ 0.25
LRAI	≤ 0.25
IEAQ	≤ 0.25
AYHL	≤ 0.25
MLMK	≤ 0.25
DLHA	≤ 0.25
NDRF	≤ 0.25
RRWC	≤ 0.25

Variant	enrichment ratio
YPIS	≤ 0.25
IEMA	≤ 0.25
FHNQ	≤ 0.25
AAGT	≤ 0.25
VHEH	≤ 0.25
CPYS	≤ 0.25
WGSL	≤ 0.25
YCWW	≤ 0.25
DITM	≤ 0.25
HNWW	≤ 0.25
MYCV	0.342
CVLL	≤ 0.25
RVNF	≤ 0.25
GSGQ	≤ 0.25
QIRF	≤ 0.25
QSFK	≤ 0.25
VLQF	≤ 0.25
EMGC	≤ 0.25
DCHD	≤ 0.25
EMWA	≤ 0.25
EICY	≤ 0.25
GYTQ	≤ 0.25
ERLP	≤ 0.25
MRFT	≤ 0.25

Variant	enrichment ratio
KYNG	≤ 0.25
LAKC	≤ 0.25
KVDP	≤ 0.25
KRMK	≤ 0.25
PERS	≤ 0.25
NLFM	≤ 0.25
KTLQ	≤ 0.25
TWMK	≤ 0.25
YQHW	≤ 0.25
DHFS	≤ 0.25
EPAD	≤ 0.25
AWVC	≤ 0.25
VSKK	≤ 0.25
QEVY	≤ 0.25
MPAI	≤ 0.25
PTDM	≤ 0.25
AGLQ	13.5
PHWN	≤ 0.25
IWTA	≤ 0.25
GNFI	0.579
SLVH	2.06
ACGF	6.85
NEHL	≤ 0.25
ASVN	7.54

Variant	enrichment ratio
LNRS	≤ 0.25
LIRL	≤ 0.25
IMAL	≤ 0.25
FGTR	≤ 0.25
YKTP	≤ 0.25
MAQN	≤ 0.25
DFWS	≤ 0.25
GHLG	≤ 0.25
HHTW	≤ 0.25
LDYE	≤ 0.25
SRTD	≤ 0.25
SWKF	≤ 0.25
LIKV	≤ 0.25
HPIA	≤ 0.25
MTSE	≤ 0.25
WKAQ	≤ 0.25
REFQ	0.489
MQYI	≤ 0.25
RQDL	≤ 0.25
MKCT	≤ 0.25
NFHP	≤ 0.25
SKHE	≤ 0.25
HYRQ	≤ 0.25
QPYH	≤ 0.25

Variant	enrichment ratio
HESI	≤ 0.25
TPSS	≤ 0.25
RLQF	≤ 0.25
YDVH	≤ 0.25
ARRH	≤ 0.25
MRCK	≤ 0.25
MPAG	≤ 0.25
RTFP	≤ 0.25
QHMF	≤ 0.25
KLAM	≤ 0.25
RGMF	≤ 0.25
IENI	≤ 0.25
DGNT	≤ 0.25
TSGM	19.2
HVKD	≤ 0.25
RMAR	≤ 0.25
MAYM	9.25
EPKP	≤ 0.25
KDFM	≤ 0.25
ILMY	≤ 0.25
YPKG	≤ 0.25
PGLW	≤ 0.25
MQYK	≤ 0.25
SETK	≤ 0.25

Variant	enrichment ratio
GNNA	≤ 0.25
KLEM	≤ 0.25
NCFK	≤ 0.25
RRIL	≤ 0.25
CFLH	≤ 0.25
SRTS	≤ 0.25
TIIT	≤ 0.25
SQSI	16.7
WAMV	≤ 0.25
LVMG	≤ 0.25
TQKE	≤ 0.25
MNDV	≤ 0.25
HRGT	≤ 0.25
QHLV	≤ 0.25
SPCK	≤ 0.25
IRPM	≤ 0.25
NNIW	≤ 0.25
MSGW	≤ 0.25
YPRF	≤ 0.25
YNMP	≤ 0.25
RCNC	≤ 0.25
NIFE	≤ 0.25
EPLD	≤ 0.25
MSHC	1.32

Variant	enrichment ratio
QQRG	≤ 0.25
IQWE	≤ 0.25
RAGL	≤ 0.25
YLVE	≤ 0.25
PDVF	≤ 0.25
VLFA	≤ 0.25
RGWP	≤ 0.25
GPNQ	≤ 0.25
VMRD	≤ 0.25
VSWY	2.67
RFQS	≤ 0.25
IMKA	≤ 0.25
EICC	≤ 0.25
YANN	≤ 0.25
KMAL	≤ 0.25
LIQA	≤ 0.25
VHGP	≤ 0.25
ACWM	≤ 0.25
EPGE	≤ 0.25
YTAG	≤ 0.25
HHFI	≤ 0.25
ANYM	0.253
ASEM	≤ 0.25
VFWL	≤ 0.25

Variant	enrichment ratio
IKRQ	≤ 0.25
HERD	≤ 0.25
TKCR	≤ 0.25
DVNF	≤ 0.25
GWHH	≤ 0.25
IGSR	≤ 0.25
QGFT	0.259
IPLK	≤ 0.25
FQHQ	≤ 0.25
PYRY	≤ 0.25
SDFN	≤ 0.25
WPPE	≤ 0.25
TIST	12.7
GAFF	≤ 0.25
KACG	≤ 0.25
QHWH	≤ 0.25
HYCH	≤ 0.25
HIAV	≤ 0.25
IIKW	≤ 0.25
YDSV	≤ 0.25
KFQE	≤ 0.25
GHRK	≤ 0.25
GDPE	≤ 0.25
KDTW	≤ 0.25

Variant	enrichment ratio
TMEG	≤ 0.25
DRWA	≤ 0.25
VSHK	≤ 0.25
HKHC	≤ 0.25
ANSG	8.67
EHPN	≤ 0.25
MLCT	≤ 0.25
MLKM	≤ 0.25
SPVA	≤ 0.25
CFLS	1.8
TNPA	≤ 0.25
QNVR	≤ 0.25
KHAT	≤ 0.25
VFEK	≤ 0.25
RYDQ	≤ 0.25
TPNE	≤ 0.25
YTYS	≤ 0.25
DKYI	≤ 0.25
WQCI	≤ 0.25
TIDR	≤ 0.25
KIDR	≤ 0.25
FKAE	≤ 0.25
AATG	7.22
PVWD	≤ 0.25

Variant	enrichment ratio
WEYQ	≤ 0.25
SFPG	≤ 0.25
IQSA	≤ 0.25
LDKM	≤ 0.25
FNGD	≤ 0.25
VNIC	≤ 0.25
LQAL	≤ 0.25
HHHL	≤ 0.25
FCPL	≤ 0.25
YNGI	≤ 0.25
MVMY	≤ 0.25
TRCH	3.09
MLPT	≤ 0.25
HELY	≤ 0.25
DVVA	≤ 0.25
ETSQ	≤ 0.25
LTDQ	≤ 0.25
EARH	≤ 0.25
LIAH	≤ 0.25
QCCV	≤ 0.25
SPHQ	≤ 0.25
IVQK	≤ 0.25
QKAN	≤ 0.25
HMWG	≤ 0.25

Variant	enrichment ratio
NDYK	≤ 0.25
TSVG	2.07
AKGC	≤ 0.25
IMDG	≤ 0.25
NSPE	≤ 0.25
TCAT	14.5
VVHV	≤ 0.25
TFHK	≤ 0.25
YNRM	≤ 0.25
GRVI	≤ 0.25
SQES	≤ 0.25
QLCM	≤ 0.25
MTEG	≤ 0.25
TSPN	≤ 0.25
RHIK	≤ 0.25
LCYA	≤ 0.25
MVAY	8.8
IWNM	≤ 0.25
YHLN	≤ 0.25
SGFR	≤ 0.25
AITI	10.7
ALLL	8.77
PLST	≤ 0.25
NKMD	≤ 0.25

Variant	enrichment ratio
RISQ	≤ 0.25
FRYA	≤ 0.25
DVPT	≤ 0.25
FHQM	≤ 0.25
QAYI	8.06
MALH	1.23
SECA	19.7
ESNP	≤ 0.25
DTCM	≤ 0.25
EFDD	≤ 0.25
HMMH	≤ 0.25
ETCP	≤ 0.25
RWGI	≤ 0.25
FTFK	≤ 0.25
IETF	≤ 0.25
RYDS	≤ 0.25
DWAC	≤ 0.25
EIDC	≤ 0.25

Source: a collection of fitness landscapes (doi:10.1126/science.1257360)
